Among the data in the supplement of paper PMC7580552 are planktonic growth values, retold here.

Counter-ions that a name gives are not always drawn. ± gives the standard deviation of the averaged measurements. The list shows a part of the results. Repeats are few or missing, and single values can be far off.
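Also: stationary (unshaken) cultures in 96-well plates, started at OD600 0.05 from mid-exponential cells, with compounds supplied from DMSO stocks.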

The test system of this assay is Escherichia coli W3110. Kind of assay: planktonic growth (OD600) relative to untreated control; higher = more growth. The conditions noted are these: 10 µM; 20-24 h; 30 °C; TB.
The molecule `Clc1ccc2nsnc2c1NC1=NCCN1` [Tizanidine hydrochloride] came in with a planktonic growth of 110%. As for `CC(C)Oc1ccc2c(=O)c(-c3ccccc3)coc2c1` [Ipriflavone], the planktonic growth was determined as 94%. In turn, `Cc1cc2cc3c(C)cc(=O)oc3c(C)c2o1` [Trioxsalen] came in with a planktonic growth of 94%. As for `CC(=O)Nc1nnc(S(N)(=O)=O)s1` [Acetazolamide], the planktonic growth is 100%.

`CO/N=C(\C(=O)N[C@@H]1C(=O)N2C(C(=O)O)=C(COC(C)=O)CS[C@H]12)c1csc(N)n1` [Cefotaxime sodium salt] registered a planktonic growth of 17%. For the molecule `C[C@]12CC[C@@H]3c4ccc(O)cc4C[C@@H](CCCCCCCCC[S+]([O-])CCCC(F)(F)C(F)(F)F)[C@H]3[C@@H]1CC[C@@H]2O` (stereo partly drawn) [Fulvestrant], the planktonic growth was 113%. Then `O=c1[nH]c(=O)n([C@H]2C[C@H](O)[C@@H](CO)O2)cc1I` [Idoxuridine], with 87%.

Molecule `Cc1cccc(N(C)C(=S)Oc2ccc3ccccc3c2)c1` [Tolnaftate] had a planktonic growth of 101%. Turning to `O=C(O)c1cccnc1` [Niacin], the planktonic growth was determined as 106%. For `CCN1CCCC1CNC(=O)c1cc(S(N)(=O)=O)ccc1OC` (stereo not drawn) [Sulpiride] the value was 93%. `COc1ccc(-c2ccc3cc(C(=O)O)ccc3c2)cc1C12CC3CC(CC(C3)C1)C2` [Adapalene] displayed a planktonic growth of 104%. As to `NNC(=O)c1ccncc1` [Isoniazid], the planktonic growth worked out at 113%. `CC1(C)O[C@@H]2C[C@H]3[C@@H]4C[C@H](F)C5=CC(=O)CC[C@]5(C)[C@H]4[C@@H](O)C[C@]3(C)[C@]2(C(=O)CO)O1` [Flurandrenolide] gave a planktonic growth of 114%. Regarding `CCC[C@@H]1C[C@@H](C(=O)N[C@@H]([C@H]2O[C@H](SC)[C@H](O)[C@@H](O)[C@H]2O)[C@@H](C)O)N(C)C1` [Lincomycin hydrochloride], the planktonic growth was found to be 96%. Then `CCN(CC)CCN[C@@H](C(=O)OCCC(C)C)c1ccccc1` [Camylofine chlorhydrate], with 99%; and `CN1CCCN=C1/C=C/c1cccs1` [Pyrantel tartrate], with 98%; and `CC12CC3CC(C)(C1)CC(N)(C3)C2` [Memantine Hydrochloride], with 95%. For `O=C(Nc1ccc([N+](=O)[O-])cc1Cl)c1cc(Cl)ccc1O` [Niclosamide] the value was 94%. For the molecule `CCOc1ccc(Cc2nccc3cc(OCC)c(OCC)cc23)cc1OCC` [Ethaverine hydrochloride], the planktonic growth turned out to be 99%. For `C#C[C@]1(O)CC[C@H]2[C@@H]3CCC4=Cc5oncc5C[C@]4(C)[C@H]3CC[C@@]21C` [Danazol] the value was 96%; for `CC(CN(C)C)CN1c2ccccc2CCc2ccccc21` (stereo not drawn) [Trimipramine maleate salt], 110%.

With `CC(C)NCC(O)COc1cccc2[nH]ccc12` (stereo not drawn) [Pindolol], the planktonic growth was 115%. Then `OC(CCN1CCCC1)(c1ccccc1)C1CCCCC1` (stereo not drawn) [Procyclidine hydrochloride], with 99%; and `CC(C)C(=O)c1c(C(C)C)nn2ccccc12` [Ibudilast], with 95%. In the case of `Nc1nc(N)c2nc(-c3ccccc3)c(N)nc2n1` [Triamterene], the planktonic growth was found to be 95%. `CC(C)(C)NC(=O)[C@H]1CC[C@H]2[C@@H]3CC[C@H]4NC(=O)C=C[C@]4(C)[C@H]3CC[C@]12C` [Finasteride] had a planktonic growth of 97%. Then `Cn1nnc2c(C(N)=O)ncn2c1=O` [Temozolomide], with 96%; and `CC(C)(C)CC(C)(C)c1ccc(OCCOCC[N+](C)(C)Cc2ccccc2)cc1` [Benzethonium chloride], with 76%. For `CCCCOc1ccc(C(=O)CCN2CCCCC2)cc1` [Dyclonine hydrochloride] the value was 91%; for `CC[C@H](c1ccc(O)cc1)[C@@H](CC)c1ccc(O)cc1` [Hexestrol], 91%. Turning to `Cc1c(Nc2ncccc2C(=O)O)cccc1C(F)(F)F` [Flunixin meglumine], the planktonic growth stood at 95%. `NCCc1ccc(O)c(O)c1` [Dopamine hydrochloride] registered a planktonic growth of 101%. `C[C@H](CS)C(=O)N1CCC[C@H]1C(=O)O` [Captopril] had a planktonic growth of 94%. Regarding `CN(Cc1cc(Br)cc(Br)c1N)C1CCCCC1` [Bromhexine hydrochloride], the planktonic growth turned out to be 91%. For `CC1(C)O[C@@H]2C[C@H]3[C@@H]4C[C@H](F)C5=CC(=O)C=C[C@]5(C)[C@H]4[C@@H](O)C[C@]3(C)[C@]2(C(=O)CO)O1` [Flunisolide] the value was 112 ± 2.8%; for `CCCc1nn(C)c2c(=O)[nH]c(-c3cc(S(=O)(=O)N4CCN(C)CC4)ccc3OCC)nc12` [Sildenafil], 110%. For `CC(=O)Oc1ccc(C(c2ccc(OC(C)=O)cc2)c2ccccn2)cc1` [Bisacodyl] the value was 72%; for `CCC(C)(C)C(=O)O[C@H]1C[C@@H](C)C=C2C=C[C@H](C)[C@H](CC[C@@H]3C[C@@H](O)CC(=O)O3)[C@H]21` [Simvastatin], 93%. Then `CCc1nn(CCCN2CCN(c3cccc(Cl)c3)CC2)c(=O)n1CCOc1ccccc1` [Nefazodone hydrochloride], with 101%.

Take `C[N+](C)(CCOc1ccccc1)Cc1ccccc1.O=C([O-])c1cc2ccccc2cc1O` [Bephenium hydroxynaphthoate]: the planktonic growth was determined as 95%. `CC(NCCc1ccc(O)cc1)C(O)c1ccc(O)cc1` (stereo not drawn) [Ritodrine hydrochloride]: the planktonic growth stood at 97%.

`NC1CCN(c2c(F)cc3c(=O)c(C(=O)O)cn(C4CC4)c3c2Cl)C1` (stereo not drawn) [Clinafloxacin] came in with a planktonic growth of 25%. Then `CCC1(C)CC(=O)NC1=O` (stereo not drawn) [Ethosuximide], with 101%; and `CCCNC(C)(C)COC(=O)c1ccccc1` [Meprylcaine hydrochloride], with 92%.

`CCC(=O)O[C@]1(C(=O)SCF)[C@H](C)C[C@H]2[C@@H]3C[C@H](F)C4=CC(=O)C=C[C@]4(C)[C@@]3(F)[C@@H](O)C[C@@]21C` [Fluticasone propionate]: the planktonic growth was 95%.

For the molecule `Nc1ccc(/N=N/c2ccccc2)c(N)n1` [Phenazopyridine hydrochloride], the planktonic growth stood at 101%. `CN(C)CCOC(=O)C(c1ccccc1)C1(O)CCCC1` (stereo not drawn) [Cyclopentolate hydrochloride] had a planktonic growth of 89%. `Nc1nc(/C(=C/CC(=O)O)C(=O)N[C@@H]2C(=O)N3C(C(=O)O)=CCS[C@H]23)cs1` [Ceftibuten] yielded a planktonic growth of 43%. Then `OCCN1CCN(CC/C=C2/c3ccccc3Sc3ccc(Cl)cc32)CC1` [Zuclopenthixol dihydrochloride], with 100%. `Nc1ccc(C(=O)O)c(O)c1` [4-aminosalicylic acid] showed a planktonic growth of 92%.

For `O=C1Nc2ccc(Cl)cc2[C@@](C#CC2CC2)(C(F)(F)F)O1` [Efavirenz], the planktonic growth was determined as 90%. For `Clc1ccc(C(c2ccccc2Cl)C(Cl)Cl)cc1` (stereo not drawn) [Mitotane] the value was 103%. Then `O=C1O[C@H]([C@@H](O)CO)C(O)=C1O` [Ascorbic acid], with 99%; and `Cc1cccc(C)c1OCC(=O)N[C@@H](Cc1ccccc1)[C@@H](O)C[C@H](Cc1ccccc1)NC(=O)[C@H](C(C)C)N1CCCNC1=O` [Lopinavir], with 97%. As to `O=C(O)c1ccccc1Nc1cccc(C(F)(F)F)c1` [Flufenamic acid], the planktonic growth was determined as 102%. In the case of `CC[N+](C)(CC)CCC[n+]1c(-c2ccccc2)c2cc(N)ccc2c2ccc(N)cc21` [Propidium iodide], the planktonic growth was 104%. Turning to `CC(C)NNC(=O)c1ccncc1` [Iproniazide phosphate], the planktonic growth was determined as 93%. For `O=C1c2cccc(O)c2C(=O)c2c(O)cccc21` [1,8-Dihydroxyanthraquinone] the value was 96%. `CCCCC(=O)N(Cc1ccc(-c2ccccc2-c2nnn[nH]2)cc1)[C@H](C(=O)O)C(C)C` [Valsartan] showed a planktonic growth of 102%. `OC(CCN1CCCCC1)(c1ccccc1)c1ccccc1` [Pridinol methanesulfonate salt] gave a planktonic growth of 94%. In turn, `CCN(CC)CCNC(=O)c1cc(Br)c(N)cc1OC` [Bromopride] showed a planktonic growth of 96%. As for `C[N+](C)(C)CCOC(N)=O` [Carbachol], the planktonic growth was found to be 107%. For `CC(C)(C)NC[C@H](O)COc1cccc2c1CCCC2=O` [(-) -Levobunolol hydrochloride] the value was 104%; for `Nc1ncn(C2OC(CO)C(O)C2O)c(=O)n1` (stereo not drawn) [Azacytidine-5], 88%; for `O=C(NC(Cc1cc(=O)[nH]c2ccccc12)C(=O)O)c1ccc(Cl)cc1` (stereo not drawn) [Rebamipide], 110%.

Regarding `O=C1c2c(O)ccc(O)c2C(=O)c2c(NCCNCCO)ccc(NCCNCCO)c21` [Mitoxantrone dihydrochloride], the planktonic growth worked out at 120%.

Take `CCOC(=O)C1=C(C)NC(C)=C(C(=O)OC)C1c1cccc(Cl)c1Cl` (stereo not drawn) [Felodipine]: the planktonic growth stood at 96%. For `C[C@H](CCC(=O)O)[C@H]1CC[C@H]2[C@@H]3C(=O)C[C@@H]4CC(=O)CC[C@]4(C)[C@H]3CC(=O)[C@]12C` [Dehydrocholic acid] the value was 102%. `CN1CCN2c3ccccc3Cc3ccccc3C2C1` (stereo not drawn) [Mianserine hydrochloride]: the planktonic growth was found to be 94%. Then `N[C@@H](Cc1ccc(O)c(O)c1)C(=O)O` [Levodopa], with 94%; and `CCCCc1ncc(/C=C(\Cc2cccs2)C(=O)O)n1Cc1ccc(C(=O)O)cc1` [Eprosartan mesylate], with 99%. On to `O=C(O)CCC(=O)c1ccc(-c2ccccc2)cc1` [Fenbufen], for which the planktonic growth stood at 91%. On to `COc1ccccc1OCCNCC(O)COc1cccc2[nH]c3ccccc3c12` (stereo not drawn) [Carvedilol], for which the planktonic growth amounted to 101%. For `CC(C)c1nc(CN(C)C(=O)N[C@H](C(=O)N[C@@H](Cc2ccccc2)C[C@H](O)[C@H](Cc2ccccc2)NC(=O)OCc2cncs2)C(C)C)cs1` [Ritonavir] the value was 101%; for `CC(C)[C@H]1CC[C@H](C(=O)N[C@H](Cc2ccccc2)C(=O)O)CC1` [Nateglinide], 96%.

`CCCCOc1ccc(OCCCN2CCOCC2)cc1` [Pramoxine hydrochloride]: the planktonic growth was found to be 103%. For `O=C(NCC1CCCCN1)c1cc(OCC(F)(F)F)ccc1OCC(F)(F)F` (stereo not drawn) [Flecainide acetate] the value was 98%; for `CC1CCc2cc(F)cc3c(=O)c(C(=O)O)cn1c23` (stereo not drawn) [Flumequine], 6%.
